PubChem BioAssay (Tox21)
Where “and” joins values, the source holds several entries; their conditions need not be identical. Equal entries are not always repeated. The inconclusive results got no clear call from the source; some entries with a clear call stand among them for comparison. A potency beside an inconclusive call is a rough fit, not a confirmed value. Where a structure was tested more than once in an assay, its records may differ in their call. Calls of active or inactive are those of the source. Unless noted, calls come from the whole dose curve; as a rule, active = well fitted inhibition curve with a large enough effect in the signal ratio in the repeat runs; inconclusive = weak or mixed curves, or effect the other way; inactive = flat fitted curve, though single readings scatter; the % refers to the signal ratio.

Experiment: qHTS assay for small molecules that induce genotoxicity in human embryonic kidney cells expressing luciferase-tagged ATAD5 - cell viability (AID 651634; calls by dose curve; note: nearly all actives have a fitted effect of over 25% in size)
Conditions: HEK293T ATAD5-luc cells viability, CellTiter-Fluor, 15.5 h; series mostly up to 83.3 µM
In short: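 HEK293T ATAD5-luc cells, 2,000/well; compound 15.5 hr, 37C/5% CO2; CellTiter-Fluor 30 min, 37C; fluorescence read.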
Potency is the fitted concentration of half-maximal effect; tags give direction and shape of the fitted curve or compound fluorescence and quenching.

SMILES	Potency
O=C(Nc1cccc([N+](=O)[O-])c1)c1cc2ccccc2cc1O	inconclusive: 27.3 µM [falling, partial curve]
NC(=NCCCCCCN=C(N)/N=C(\N)Nc1ccc(Cl)cc1)/N=C(\N)Nc1ccc(Cl)cc1	inconclusive: 68 µM [falling, single point]
Cc1nc(Nc2ncc(C(=O)Nc3c(C)cccc3Cl)s2)cc(N2CCN(CCO)CC2)n1	inconclusive: 23.7 µM
CCC(C)c1cc([N+](=O)[O-])cc([N+](=O)[O-])c1OC(=O)OC(C)C (stereo not given)	active: 61.1 µM
CNC(=O)c1ccccc1Sc1ccc2c(/C=C/c3ccccn3)n[nH]c2c1	active: 13.3 µM

Experiment: qHTS assay for small molecule disruptors of the mitochondrial membrane potential - cell viability (AID 720634; calls by dose curve; note: nearly all actives have a fitted effect of over 20% in size)
Conditions: HepG2 viability, ATP luminescence (CellTiter-Glo), 1 h; series mostly up to 83.2 µM
In short: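 Luminescence from CellTiter-Glo (ATP content) gave viability in HepG2 cells, read in the same wells as the MMP dye assay after 1 hr compound exposure at 37 C.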

SMILES	Potency
Nc1ccc(N=Nc2ccccc2)c(N)c1	active: 47.5 µM
COc1cc(C=C2CCC/C(=C\c3ccc(O)c(OC)c3)C2=O)ccc1O	inconclusive: 23.7 µM [cytotoxic, partial curve]
CCCCCCCC[N+](CCCCCCCC)(CCCCCCCC)CCCCCCCC	active: 27.3 µM
CC(C)CCCCCOC(=O)CS	inactive
CN(C)c1ccc(N=NS(=O)(=O)O)cc1	inconclusive: 25.6 µM [cytotoxic, partial curve, poor fit]
CC1CCC(C(C)CS)CC1S (stereo not given)	inconclusive: 68.6 µM [cytotoxic, partial curve, poor fit]
CCCCCCCCCCCC[N+](C)(C)CCCCCCCCCCCC	active: 30.6 µM
O=C(Nc1cccc([N+](=O)[O-])c1)c1cc2ccccc2cc1O	inconclusive: 0.77 µM [cytotoxic, full curve, poor fit]
NC(=NCCCCCCN=C(N)/N=C(\N)Nc1ccc(Cl)cc1)/N=C(\N)Nc1ccc(Cl)cc1	inconclusive: 68.2 µM [cytotoxic, single point] [middle of 4 runs]
CCC(C)c1cc([N+](=O)[O-])cc([N+](=O)[O-])c1OC(=O)OC(C)C (stereo not given)	active: 21.7 µM
CNC(=O)c1ccccc1Sc1ccc2c(/C=C/c3ccccn3)n[nH]c2c1	inconclusive: 8.41 µM [cytotoxic, partial curve, poor fit]

Experiment: qHTS assay for small molecule disruptors of the mitochondrial membrane potential (AID 720635); for ratio activity, negative = MMP loss: % is set by controls: 0 for no effect and ±100 for the full control effect
Conditions: HepG2 mitochondrial membrane potential, Mito-MPS dye ratio; ratio activity, negative = MMP loss: at 83.2 µM (top of the series) unless noted
In short: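 HepG2 cells exposed to compound 1 hr at 37C, then Mito-MPS dye 30 min. Ratio read of aggregate (540/590 nm) versus monomer (490/535 nm) fluorescence.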

SMILES	Potency	ratio activity, negative = MMP loss
CC[C@H]1CN2CCc3cc(OC)c(OC)cc3[C@@H]2C[C@@H]1C[C@H]1NCCc2cc(OC)c(OC)cc21	inconclusive: 3.76 µM [activator, partial curve] and inconclusive: 7.72 µM [activator, partial curve]	
Nc1ccn(C2CO[C@H](CO)O2)c(=O)n1 (stereo not given in full)		inconclusive: -4.44%
C/C=C(/C(=C/C)c1ccc(O)cc1)c1ccc(O)cc1	active: 9.02 µM	
OCCN1CCNCC1	inconclusive: 19.1 µM [activator, full curve]	
Nc1ccc(N=Nc2ccccc2)c(N)c1	active: 4.75 µM	
CC(=O)N/N=C/c1ccc([N+](=O)[O-])o1	inconclusive: 2.37 µM [inhibitor, full curve, poor fit]	
COc1cc(C=C2CCC/C(=C\c3ccc(O)c(OC)c3)C2=O)ccc1O	active: 4.95 µM	
CCCCCCCC[N+](CCCCCCCC)(CCCCCCCC)CCCCCCCC	active: 0.0768 µM	
CCN(CC)CCOC(=O)C(Cc1cccc2ccccc12)CC1CCCO1 (stereo not given)		inconclusive: 13.4% [at 39.1 µM]
CCN(CC)CCCN(c1ccccc1)C1Cc2ccccc2C1	inconclusive: 1.5 µM [activator, full curve]	
CN1C[C@H](C(=O)N[C@]2(C)O[C@@]3(O)[C@@H]4CCCN4C(=O)[C@H](Cc4ccccc4)N3C2=O)C[C@@H]2c3cccc4[nH]cc(c34)C[C@H]21	inconclusive: 1.19 µM [inhibitor, full curve, poor fit]	
CC(C)CCCCCOC(=O)CS		inconclusive: 27.4%
Cc1cccc(OCCOc2cccc(C)c2)c1		inconclusive: -2.69% [at 95.3 µM]
CCN(Cc1c(F)cccc1Cl)c1c([N+](=O)[O-])cc(C(F)(F)F)cc1[N+](=O)[O-]	active: 54.5 µM	
CN(C)c1ccc(N=NS(=O)(=O)O)cc1	active: 2.17 µM	
Nc1ncnc2c1ncn2[C@@H]1O[C@H](COP(=O)(O)O)[C@@H](O)[C@H]1O	inconclusive: 0.0841 µM [activator, full curve, poor fit]	
O=C(O)c1ccc(-n2nc(-c3ccccc3O)nc2-c2ccccc2O)cc1	inconclusive: 1.68 µM [activator, full curve, poor fit]	
Nc1cc(S(=O)(=O)O)cc2cc(S(=O)(=O)O)cc(O)c12	inactive and inconclusive: 61.1 µM [inhibitor, single point]	
C[C@@H]1CN(CCCn2c3ccccc3c3ccccc32)C[C@H](C)N1	inconclusive: 8.41 µM [activator, full curve]	
Cc1c(O)cccc1C(=O)N[C@@H](CSc1ccccc1)[C@H](O)CN1C[C@H]2CCCC[C@H]2C[C@H]1C(=O)NC(C)(C)C	active: 10.6 µM and active: 7.49 µM	
Cc1cccc(O)c1N		inconclusive: 5.19% [at 95.3 µM]
CCCCCCCCCCCC[N+](C)(C)CCCCCCCCCCCC	active: 19.3 µM	
CCN(CC)CCOc1ccc(Cc2ccccc2)cc1	inconclusive: 11.9 µM [activator, partial curve]	
O=C(Nc1cccc([N+](=O)[O-])c1)c1cc2ccccc2cc1O	active: 0.154 µM	
Cc1nc(Nc2ncc(C(=O)Nc3c(C)cccc3Cl)s2)cc(N2CCN(CCO)CC2)n1	inconclusive: 1.56 µM [fluorescent, full curve]	
CCc1nc(N)nc(N)c1-c1ccc(Cl)cc1	inconclusive: 31.1 µM [rising, partial curve, poor fit]	inconclusive: -33.4%
Cc1ccc(C(C)C)c(O)c1	active: 24.3 µM	inconclusive: -35.1%
